{
  "source": "the supplement of paper PMC8728848",
  "binders": {"B1": {"name": "CFEM-PPl (Pichia pastoris), F2QPV1 (protein)", "chain": "AVATPPACLLACAAEVVKESSDCDALNNIQCICENEGSAIHACLESTCPDGLSSTALQSFEDVCESVGTEANLDE"}},
  "assay_in_all_cases": "glycan array binding signal (z-score within array); higher = stronger binding",
  "conditions_in_all_cases": "glycan notation: IUPAC condensed, linker removed",
  "key": {"[1]": {"target": "Gal3S(b1-3)[Fuc(a1-4)]GlcNAc", "procedure,_shortened": "(§1)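 Arrays were curated from the Consortium for Functional Glycomics database, 3228 in total, and kept only where the protein sequence was available. Binding is expressed as a within-array Z-score. This score was averaged across arrays of the same protein sequence at different concentrations or buffers and across linkers, and negative values can be read as non-binding.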"}, "[2]": {"target": "Gal3S(b1-4)Glc", "procedure,_shortened": "as §1"}, "[3]": {"target": "Gal3S(b1-4)Glc6S", "procedure,_shortened": "as §1"}, "[4]": {"target": "Gal3S(b1-4)GlcNAc", "procedure,_shortened": "as §1"}, "[5]": {"target": "Gal3S(b1-4)[Fuc(a1-3)]Glc6S", "procedure,_shortened": "as §1"}, "[6]": {"target": "Gal3S(b1-4)[Fuc(a1-3)]GlcNAc", "procedure,_shortened": "as §1"}, "[7]": {"target": "Gal3S(b1-4)[Fuc(a1-3)]GlcNAc6S", "procedure,_shortened": "as §1"}, "[8]": {"target": "Gal3S4S(b1-4)GlcNAc", "procedure,_shortened": "as §1"}, "[9]": {"target": "Gal3S6S(b1-4)GlcNAc", "procedure,_shortened": "as §1"}, "[10]": {"target": "Gal3S6S(b1-4)GlcNAc6S", "procedure,_shortened": "as §1"}, "[11]": {"target": "Gal4S(b1-4)GlcNAc", "procedure,_shortened": "as §1"}, "[12]": {"target": "Gal4S6S(b1-4)GlcNAc", "procedure,_shortened": "as §1"}, "[13]": {"target": "Gal6P(b1-4)GlcNAc", "procedure,_shortened": "as §1"}, "[14]": {"target": "Gal6S(b1-3)GlcNAc", "procedure,_shortened": "as §1"}, "[15]": {"target": "Gal6S(b1-3)GlcNAc6S", "procedure,_shortened": "as §1"}, "[16]": {"target": "Gal6S(b1-4)Glc", "procedure,_shortened": "as §1"}, "[17]": {"target": "Gal6S(b1-4)Glc6S", "procedure,_shortened": "as §1"}, "[18]": {"target": "Gal6S(b1-4)GlcNAc", "procedure,_shortened": "as §1"}, "[19]": {"target": "Gal6S(b1-4)GlcNAc6S", "procedure,_shortened": "as §1"}, "[20]": {"target": "GalNAc(a1-3)Gal", "procedure,_shortened": "as §1"}, "[21]": {"target": "GalNAc(a1-3)GalNAc", "procedure,_shortened": "as §1"}, "[22]": {"target": "GalNAc(a1-3)GalNAc(b1-3)Gal(a1-4)Gal(b1-4)Glc", "procedure,_shortened": "as §1"}, "[23]": {"target": "GalNAc(a1-3)GalNAc(b1-3)Gal(a1-4)Gal(b1-4)GlcNAc", "procedure,_shortened": "as §1"}, "[24]": {"target": "GalNAc(b1-3)Gal", "procedure,_shortened": "as §1"}, "[25]": {"target": "GalNAc(b1-3)Gal(a1-4)Gal(b1-4)GlcNAc", "procedure,_shortened": "as §1"}, "[26]": {"target": "GalNAc(b1-3)Gal(a1-4)Gal(b1-4)GlcNAc(b1-3)Gal(b1-4)Glc", "procedure,_shortened": "as §1"}, "[27]": {"target": "GalNAc(b1-3)Gal(a1-6)Gal(b1-4)Glc", "procedure,_shortened": "as §1"}, "[28]": {"target": "GalNAc(b1-3)GalNAc", "procedure,_shortened": "as §1"}, "[29]": {"target": "GalNAc(b1-3)GlcNAc", "procedure,_shortened": "as §1"}, "[30]": {"target": "GalNAc(b1-4)Gal(b1-4)Glc", "procedure,_shortened": "as §1"}, "[31]": {"target": "GalNAc(b1-4)GlcNAc", "procedure,_shortened": "as §1"}, "[32]": {"target": "GalNAc(b1-4)GlcNAc(b1-2)Man", "procedure,_shortened": "as §1"}, "[33]": {"target": "GalNAc(b1-4)GlcNAc(b1-2)Man(a1-3)[GalNAc(b1-4)GlcNAc(b1-2)Man(a1-6)]Man(b1-4)GlcNAc(b1-4)GlcNAc", "procedure,_shortened": "as §1"}, "[34]": {"target": "GalNAc(b1-4)GlcNAc(b1-3)GalNAc(b1-4)GlcNAc", "procedure,_shortened": "as §1"}, "[35]": {"target": "GalNAc(b1-4)GlcNAc6S", "procedure,_shortened": "as §1"}, "[36]": {"target": "GalNAc(b1-6)GalNAc", "procedure,_shortened": "as §1"}, "[37]": {"target": "GalNAc3S(b1-4)GlcNAc", "procedure,_shortened": "as §1"}, "[38]": {"target": "GalNAc3S(b1-4)GlcNAc3S", "procedure,_shortened": "as §1"}, "[39]": {"target": "GalNAc3S(b1-4)[Fuc(a1-3)]GlcNAc", "procedure,_shortened": "as §1"}, "[40]": {"target": "GalNAc4S6S(b1-4)GlcNAc", "procedure,_shortened": "as §1"}, "[41]": {"target": "GalNAc6S(b1-4)GlcNAc", "procedure,_shortened": "as §1"}, "[42]": {"target": "Glc(a1-4)Glc", "procedure,_shortened": "as §1"}, "[43]": {"target": "Glc(a1-4)Glc(a1-4)Glc(a1-4)Glc", "procedure,_shortened": "as §1"}, "[44]": {"target": "Glc(a1-6)Glc(a1-6)Glc", "procedure,_shortened": "as §1"}, "[45]": {"target": "Glc(a1-6)Glc(a1-6)Glc(a1-6)Glc", "procedure,_shortened": "as §1"}},
  "note": "The list shows a part of the results.",
  "data": [
    {"binder": "B1", "values": [
      {"measurement": "glycan array binding signal (z-score)", "setting": "[1]", "value": -0.247},
      {"measurement": "glycan array binding signal (z-score)", "setting": "[2]", "value": -0.281},
      {"measurement": "glycan array binding signal (z-score)", "setting": "[3]", "value": -0.086},
      {"measurement": "glycan array binding signal (z-score)", "setting": "[4]", "value": -0.165},
      {"measurement": "glycan array binding signal (z-score)", "setting": "[5]", "value": 0.302},
      {"measurement": "glycan array binding signal (z-score)", "setting": "[6]", "value": -0.308},
      {"measurement": "glycan array binding signal (z-score)", "setting": "[7]", "value": -0.288},
      {"measurement": "glycan array binding signal (z-score)", "setting": "[8]", "value": -0.257},
      {"measurement": "glycan array binding signal (z-score)", "setting": "[9]", "value": -0.303},
      {"measurement": "glycan array binding signal (z-score)", "setting": "[10]", "value": -0.019},
      {"measurement": "glycan array binding signal (z-score)", "setting": "[11]", "value": -0.282},
      {"measurement": "glycan array binding signal (z-score)", "setting": "[12]", "value": -0.217},
      {"measurement": "glycan array binding signal (z-score)", "setting": "[13]", "value": -0.15},
      {"measurement": "glycan array binding signal (z-score)", "setting": "[14]", "value": -0.164},
      {"measurement": "glycan array binding signal (z-score)", "setting": "[15]", "value": -0.035},
      {"measurement": "glycan array binding signal (z-score)", "setting": "[16]", "value": 0.163},
      {"measurement": "glycan array binding signal (z-score)", "setting": "[17]", "value": 1.43},
      {"measurement": "glycan array binding signal (z-score)", "setting": "[18]", "value": 0.191},
      {"measurement": "glycan array binding signal (z-score)", "setting": "[19]", "value": 0.881},
      {"measurement": "glycan array binding signal (z-score)", "setting": "[20]", "value": -0.296},
      {"measurement": "glycan array binding signal (z-score)", "setting": "[21]", "value": -0.327},
      {"measurement": "glycan array binding signal (z-score)", "setting": "[22]", "value": -0.317},
      {"measurement": "glycan array binding signal (z-score)", "setting": "[23]", "value": -0.223},
      {"measurement": "glycan array binding signal (z-score)", "setting": "[24]", "value": -0.325},
      {"measurement": "glycan array binding signal (z-score)", "setting": "[25]", "value": -0.405},
      {"measurement": "glycan array binding signal (z-score)", "setting": "[26]", "value": -0.277},
      {"measurement": "glycan array binding signal (z-score)", "setting": "[27]", "value": -0.307},
      {"measurement": "glycan array binding signal (z-score)", "setting": "[28]", "value": -0.264},
      {"measurement": "glycan array binding signal (z-score)", "setting": "[29]", "value": -0.373},
      {"measurement": "glycan array binding signal (z-score)", "setting": "[30]", "value": -0.013},
      {"measurement": "glycan array binding signal (z-score)", "setting": "[31]", "value": -0.06},
      {"measurement": "glycan array binding signal (z-score)", "setting": "[32]", "value": -0.202},
      {"measurement": "glycan array binding signal (z-score)", "setting": "[33]", "value": -0.27},
      {"measurement": "glycan array binding signal (z-score)", "setting": "[34]", "value": -0.316},
      {"measurement": "glycan array binding signal (z-score)", "setting": "[35]", "value": -0.241},
      {"measurement": "glycan array binding signal (z-score)", "setting": "[36]", "value": -0.207},
      {"measurement": "glycan array binding signal (z-score)", "setting": "[37]", "value": -0.362},
      {"measurement": "glycan array binding signal (z-score)", "setting": "[38]", "value": -0.247},
      {"measurement": "glycan array binding signal (z-score)", "setting": "[39]", "value": -0.207},
      {"measurement": "glycan array binding signal (z-score)", "setting": "[40]", "value": -0.229},
      {"measurement": "glycan array binding signal (z-score)", "setting": "[41]", "value": -0.186},
      {"measurement": "glycan array binding signal (z-score)", "setting": "[42]", "value": -0.201},
      {"measurement": "glycan array binding signal (z-score)", "setting": "[43]", "value": -0.277},
      {"measurement": "glycan array binding signal (z-score)", "setting": "[44]", "value": -0.28},
      {"measurement": "glycan array binding signal (z-score)", "setting": "[45]", "value": -0.232}
    ]}
  ]
}
